Test results as given in PubChem BioAssay AID1346428 (National Center for Advancing Translational Sciences (NCATS), 2018).
Where “and” joins values, the source holds several entries; their conditions need not be identical. Identical values can stand only once. Hit rate of the full screen: of about 48,000 compounds, about 1,200 (2.5%) were called active. Roughly 2% stayed inconclusive and do not appear here.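 How the source made its calls: active means activation of at least 60% and not above a set upper limit (about 1 call in 100 departs from these limits); inconclusive means activation of 40% to 60%, or above that upper limit; inactive means activation under 40%.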 The list shows a part of the results.

Target: Probable G-protein coupled receptor 32 (Homo sapiens) (UniProt O75388)
Assay: qHTS for Agonists of Human Resolvin D1 Receptor DRV1; further: 0% is about no effect
Conditions: CHO-K1 GPR32 beta-arrestin PathHunter luminescence, 90 min; at 76.9 µM; hits give high values; zero percent set by DMSO-only wells
Summary of the method: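 Agonism was scored by beta-Gal fragment complementation (chemiluminescent read, 1 h detection at ambient temperature) reporting beta-arrestin binding to GPR32 in engineered CHO-K1 cells. Compound treatment lasted 90 min at 37 C, normalized to a DMSO basal control.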

Chain of UniProt O75388 (O75388 whole entry, looked up): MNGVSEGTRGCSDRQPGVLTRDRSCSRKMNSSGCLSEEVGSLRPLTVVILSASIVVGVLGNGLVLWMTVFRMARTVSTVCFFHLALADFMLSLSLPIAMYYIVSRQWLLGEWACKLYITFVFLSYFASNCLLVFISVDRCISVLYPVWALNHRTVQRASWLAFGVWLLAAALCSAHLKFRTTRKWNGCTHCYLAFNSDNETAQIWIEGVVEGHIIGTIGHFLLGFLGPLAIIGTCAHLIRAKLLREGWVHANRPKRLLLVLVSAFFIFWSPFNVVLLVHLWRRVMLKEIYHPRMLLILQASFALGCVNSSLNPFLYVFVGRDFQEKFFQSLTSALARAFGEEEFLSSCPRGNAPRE

activation, inactive:
O=C1CCCc2cc(S(=O)(=O)NCC3CCC(C(=O)NCc4ccc(F)cc4)CC3)ccc2N1 (configuration not stated) -41.1%
O=C(CSc1nnc(-c2cccc(F)c2)c(-c2cccc(F)c2)n1)NC1CCCCC1 -13.5%
COc1ccc(-n2nc3c(N4CCC(C(=O)NCCc5ccccc5)CC4)nnc(C)c3c2C)cc1 5.99%
COc1cccc(CSc2nc(-c3ccccc3F)nc3c2Cc2c(CO)cnc(C)c2O3)c1 5.73%
O=C(Cn1ncc2c(=O)oc3ccccc3c21)N1CCN(c2ccc(Cl)cc2)CC1 18.4%
CC(C)(C)c1ccc(C(=O)N(Cc2ccc(F)cc2)Cc2ccco2)cc1 -15.2%
Cc1ccc(-c2nnc(Nc3ccccc3)c3ccccc23)cc1S(=O)(=O)N1CCN(C)CC1 3.3%
CCOC(=O)c1c(NC(=O)COc2ccccc2Br)sc2c1CCCCC2 -9.87%
COc1cc(Cl)c(C)cc1NC(=O)c1cnn(-c2ccc(F)cc2F)c1C1CCN(C(=O)OC(C)(C)C)CC1 -12.1%
COc1ccc2cc(CNc3ccc(C)cc3)c(=O)n(CC(=O)Nc3cccc(Cl)c3C)c2c1 -24.1%
O=C(Nc1ccc(F)c(Cl)c1)Nc1c[nH]c(=O)[nH]c1=O 6.1%
O=C(CSc1nc(=O)n(CCN2CCOCC2)c2c1CCC2)Nc1ccc(Cl)c(Cl)c1 -7.94%
CC(CNC(=O)c1cnn(-c2ccc(F)cc2)c1-n1cccc1)c1ccccc1 (configuration not stated) 11.9%
CC(=O)Nc1ccccc1-c1nc2ccccc2n(CC(=O)Nc2cccc(C)c2C)c1=O -10.3%
Cc1ccc2nc(SCc3nc(-c4ccc(Cl)cc4)no3)[nH]c2c1 17.7%
Cc1cc(C)cc(N2C(=O)CSC23C(=O)N(Cc2c(F)cccc2Cl)c2ccccc23)c1 (configuration not stated) -0.301%
CCOC(=O)c1cc(-c2ccccc2)n(CCC(=O)Nc2ccccc2CC)c1C -14.3%
Cc1cc2c(cc1S(=O)(=O)Nc1cccc(Cl)c1C)n(C)c(=O)c(=O)n2C -2.19%
COc1ccc(C2CC(=O)N(Cc3ccc(C)cc3)c3c2c(C)nn3-c2nc(C)cc(C)n2)c(OC)c1 (configuration not stated) 0.504%
Cc1cccc2nc(-c3ccccn3)c(Nc3ccc(F)cc3)n12 -95.1%
Cc1cccc(CSc2nc3c([nH]c4ccccc43)c(=O)n2C)c1 -4.35%
CCCCC12CN3CC(C)(CN(C1)C3c1c[nH]c3ccccc13)C2=O (configuration not stated) -22.4%
CCCCC(CC)CNC(=O)Cc1ccc(-n2c(=O)[nH]c3ccccc3c2=O)cc1 (configuration not stated) 2.06%
CCOc1ccc(CC(=O)Nc2c(C(=O)c3ccccc3)oc3ccc(Cl)cc23)cc1OCC -2.83%
CC(=O)N1c2ccc(S(=O)(=O)Nc3ccc(C)c(Cl)c3)cc2CC1C (configuration not stated) 45.2%
COc1ccc(N2CCN(S(=O)(=O)c3ccc(-c4coc(C)n4)cc3)CC2)cc1 43%
Cc1cc(Nc2ccc(F)cc2F)nc(-n2nc(C)cc2C)n1 -18.3%
CCc1cc2c(cc3c(=O)n(CCCC(=O)NCc4cccc(Br)c4)ncn32)s1 3.1%
Cc1c(CCNC(=O)c2ccc(C(C)(C)C)cc2)sc2nc(-c3ccc(F)cc3)nn12 -6.61%
CC1=C(C(=O)Nc2cccnc2)C(c2ccc(C)cc2)n2nc(SCc3ccccc3F)nc2N1 (configuration not stated) 8.25%
COc1cc2c(cc1OC)n(CC(=O)c1cc(C)ccc1C)c(=O)n1nc(CCn3nc(C)cc3C)nc21 -7.43%
CNS(=O)(=O)c1cn(CC(=O)N2CCN(c3ccc(C(C)=O)cc3)CC2)cc1S(=O)(=O)NC -6.9%
Cc1ccc(NC(=O)C(CC(C)C)N2Cc3ccccc3C2=O)cc1F (configuration not stated) -7.26%
CCOc1ccc(CCNC(=O)c2c(C)oc3ncn(CC(C)C)c(=O)c23)cc1OCC -16.6%
CCCNC(C)C(=O)Nc1ccccc1C (configuration not stated) -8.21% and 2.77%
CC(=O)N1CCc2c(sc3c2c(=O)n(-c2ccccc2)c(=O)n3CC(=O)Nc2cc(C)cc(C)c2)C1 -10.5%
COc1ccc(CN(CCN(C)C)c2ccccn2)cc1 15.7% and -6.18%
CCCCCc1ccc(-c2ccc(Br)cc2)nc1 10.5%
Cc1ccc(-n2nc(C(=O)N3CCN(c4ccccc4F)CC3)c(=O)n(C)c2=O)cc1 -1.28%
Nc1ncn([C@@H]2O[C@H](CO)[C@@H](O)[C@H]2O)c(=O)n1 -18.2% and 6.48%
O=C(NCc1ccccc1F)C(=O)NCC(c1ccc2c(c1)OCO2)N1CCOCC1 (configuration not stated) -6.64%
CC(COc1ccccc1)N(CCCl)Cc1ccccc1 (configuration not stated) -17.1% and -11.7%
Cc1cc(Br)ccc1NC(=O)CSc1c2c(nc3ccccc13)CCC2 -30.7%
CCc1ccc(NC(=O)CSc2nc(C)c(C(=O)Nc3ccccc3)c(-c3ccc(OC)c(OC)c3)c2C#N)cc1 -12.9%
CCOc1ccc(CNC(=O)CCc2c(C)nn(-c3ccc(N4CCCCC4)nn3)c2C)cc1 -18.4%
CSc1ccc(CCNC(=O)c2cc(C)nc3c2c(C)nn3-c2cccc(F)c2)cc1 -5.43%
CC(C)(C)C(=O)CSc1nc2ccsc2c(=O)n1Cc1ccccc1Cl -28.1%
CCOc1ccccc1NC(=O)CSc1nc2c(oc3ccccc32)c(=O)n1-c1ccc(F)cc1 -42.1%
COc1cccc(CSc2nc3n(n2)C(c2ccc(C(=O)O)cc2)C(C(=O)Nc2ccccc2)=C(C)N3)c1 (configuration not stated) 17.4%
O=C(OCc1cc(=O)n2nc(-c3cccs3)sc2n1)c1ccccc1Cl 8.76%
CNc1ncnc2c1ncn2[C@H]1C[C@H](OP(=O)(O)O)[C@@H](COP(=O)(O)O)O1 1.93%
COc1ccccc1N1CCN(c2ccc(=O)n(CC(=O)NCc3ccc(F)cc3)n2)CC1 20.9%
COc1ccc(NC(=O)c2cc3cc(C)ccc3[nH]2)cc1 -5.71%
CSc1ccccc1-c1nnc(NC(=O)c2ccc3c(c2)OCCO3)o1 -21.8%
Cc1c(C(=O)N2CCCCCC2)c(S(=O)(=O)NCc2ccccc2)c(C)n1C -15.3%
Oc1ccc(-c2nc3ccc(Cl)cn3c2Nc2ccc(Cl)cc2)cc1 18.4%
O=C(c1cc2c(Cl)nc3ccccc3c2s1)N1CCCCC1 49.1%
Cc1ccc(CNS(=O)(=O)c2cnc(N)nc2)cc1 -11.3%
Cc1ccccc1NC(=O)Cn1nc(-c2ccccc2)nc(Cc2ccccc2)c1=O -11.6%
COc1ccc(Cn2ccc3nc(C)c(C(=O)NCc4ccc(SC)cc4)cc3c2=O)cc1 -3.63%
CCSC(=N)N -0.818%
CCc1ccc2ncc3c(-c4ccc(C)cc4)nn(CC(=O)NCc4ccccc4)c3c2c1 3.11%
COc1ccc(CNC(=O)CSc2nnc(C)c3c(C)n(-c4ccccc4)nc23)c(OC)c1 -12.9%
O=C(CSc1nc2ccccc2n1Cc1cccc(F)c1)NCc1ccccc1 -25.7%
COc1ccc(-c2nc3sc(CCNC(=O)C(=O)Nc4ccc(OC)c(OC)c4)c(C)n3n2)cc1 -3.11%
COc1ccc(Br)cc1Cn1nnc(C(=O)Nc2cccc(SC)c2)c1N -4.54%
Cc1ccccc1Cn1c2ccccc2c2cnn(CC(=O)NC3CCCCCC3)c(=O)c21 -6.7%
CC(C)CCNC(=O)Cn1nc(N2CCN(c3ccccc3)CC2)ccc1=O -16.3%
CCOC(=O)c1sc2ncn(CC(=O)Nc3ccc(OC)c(Cl)c3)c(=O)c2c1C -0.158%
CN(CC(=O)Nc1cccc(F)c1)S(=O)(=O)c1ccc2c(c1)n(C)c(=O)c(=O)n2C -12.3%
Cc1ccc(NC(=O)c2ccc(CN3CC(=O)N4CCCCC4C3=O)cc2)c(Cl)c1 (configuration not stated) -8.29%
COc1ccc(OC)c(C2C(C(=O)Nc3ccc(C)cc3)=C(C)Nc3nnnn32)c1 (configuration not stated) -3.75%
CN1CCN(C(=O)c2ccc3c(c2)N(Cc2ccc(C(F)(F)F)cc2)C(=O)c2ccccc2S3)CC1 3.62%
COc1ccc(S(=O)(=O)NCc2nc(-c3ccccc3)no2)cc1 -20.3%
CC(=O)c1cccc(NC(=O)CSc2ncc3c(n2)-c2cc(Cl)ccc2N(Cc2ccccc2)S3(=O)=O)c1 9.47%
COc1cc(CNC(=O)c2cc3n(n2)CCCN(Cc2cccc(F)c2)C3=O)cc(OC)c1OC -1.89%
O=C(CC(c1cccs1)N1Cc2ccccc2C1=O)Nc1ccc(F)cc1 (configuration not stated) -2.73%
CSc1cccc(NC(=O)c2cc3c(COC(C)=O)cnc(C)c3oc2=O)c1 -10%
Cc1ccc(-n2ncc(C(=O)NCc3ccc4c(c3)OCO4)c2C2CCN(C(=O)OC(C)(C)C)CC2)c(C)c1 -64.5%
COc1ccc(CCNC(=O)CSc2cn(CCNC(=O)c3c(F)cccc3F)c3ccccc23)cc1OC 37.3%
CN(C)c1ccc(NC(=O)Cn2c(SCc3ccc(F)cc3)nc3ccncc32)cc1 -19.2%
CC(=O)Nc1ccc(NS(=O)(=O)c2c(C(=O)N3CCCCCC3)c(C)n(C)c2C)cc1 -0.914%
